Patent US7615356B2, “Ion channel assay methods” (Vertex Pharmaceuticals (San Diego) LLC, priority 2000, dated 2009)

Test system: NaV2 sodium channel
Conditions: for dependence of block on time window of response (shift of dose-response curve) / EC50: CHO NaV2; for dependence of block on time window of response (shift of dose-response curve): 20 Hz stimulus, 1 second vs 3 seconds; for EC50: read-out: EC50, Electric field stimulation, average of two experiments, lowest recorded value for use-dependent blockers

| SMILES | dependence of block on time window of response (shift of dose-response curve) | EC50 | inhibition of response induced by field strengths up to 85 V/cm | response of spiked wells |
| --- | --- | --- | --- | --- |
| CCCCN1CCCCC1C(=O)Nc1c(C)cccc1C (centres unmarked) [Bupivacaine] | smaller amount of shift | 1 µM | – | – |
| CCN(CC)CC(=O)Nc1c(C)cccc1C [Lidocaine] | smaller amount of shift | 30 µM | – | – |
| CCCCNc1ccc(C(=O)OCCN(C)C)cc1 [tetracaine] | an order of magnitude stronger at 3 seconds than at 1 second | 0.19 µM | – | – |
| O=C1NC(=O)C(c2ccccc2)(c2ccccc2)N1 [Phenytoin] | – | 24 µM | – | – |
| NC1=N[C@H](O)[C@H]2[C@H]3O[C@]4(O)O[C@@H]([C@@H](O)[C@@]2(N1)[C@@H]4O)[C@]3(O)CO [TTX, tetrodotoxin] | – | – | could be inhibited | little or no detectable response |
| COc1cc(CNC(=O)CCCC/C=C/C(C)C)ccc1O [capsaicin] | – | 1.6 µM | – | – |
| N=C(N)NC(=O)c1nc(Cl)c(N)nc1N [amiloride] | – | > 1000 µM | – | – |
